{"source": "patent US12280114B2", "about": "“Extraction of plant source “medicinal soup” and manual preparation of “herbal medicine” and related products” (BEIJING BAISHIHEKANG PHARMACEUTICAL TECHNOLOGY (BSJPHARMA) …, priority 2018, dated 2025)", "type_in_all_cases": "cell-based, human", "key": {"A549 cells [1]": {"system": "A549 cells", "assay": "RT-qPCR detection of nucleic acid delivered by lipid into A549 cells", "conditions": "HJT-sRNA-m7 double-stranded RNA, A549 cells"}, "A549 cells [2]": {"system": "A549 cells", "assay": "Flow cytometry of green fluorescent protein delivered by lipid into A549 cells", "conditions": "6 hours", "experimental": "(§1) Experimental method: The bencaosome was prepared by reverse evaporation of ether. 0.2 nmol green fluorescent protein dissolved in 20 μl water was added to 100 μl ether solutions containing 0 μg, 1 μg, 3 μg lipid respectively. After fully mixing, sonication was conducted for 3 min. After evaporation at 60° C. to remove organic solvent, the bencaosome solution was obtained by hydrating with 100 μL opti-MEM. Then the bencaosome was added to A549 cells and co-incubated for 6 hours. The samples were collected and tested. After washing three times with PBS, the samples were digested with trypsin for three minutes. The trypsin was removed, and then the samples were washed with PBS and blown off. Accuri® C6 instrument was used to measure.\nas §1, with “method.” for “of ether.”\nExperimental method: The bencaosome was prepared by heating method. 0.2 nmol green fluorescent protein dissolved in 100 μl water was added to 0 μL, 1 μL, 3 μL of lipid respectively. After fully mixing, the bencaosome solution was obtained by heating at 90° C. for 15 min. Then the bencaosome was added to A549 cells and co-incubated for 6 hours. The samples were collected and tested. After washing three times with PBS, the samples were digested with trypsin for three minutes, the trypsin was removed, and then the samples were washed with PBS and blown off. Accuri® C6 instrument was used to measure.\nas §1, with “reverse evaporation method. 0.2 nmol” for “reverse evaporation of ether. 0.2 nmol”, “was added 100 μl” for “was added to 100 μl”, “min. After evaporated at 60°” for “min. After evaporation at 60°”, “for three minutes, the trypsin was” for “for three minutes. The trypsin was”, “removed, and the samples” for “removed, and then the samples”"}, "A549 cells [3]": {"system": "A549 cells", "assay": "Confocal fluorescence microscopy of green fluorescent protein delivered by lipid into A549 cells", "conditions": "reverse evaporation method; 6 hours", "experimental": "Experimental method: The bencaosome was prepared by reverse evaporation method. 0.2 nmol green fluorescent protein dissolved in 20 μl water was added to 100 μl ether solutions containing 0 μg, 0.25 μg, 0.75 μg lipid respectively. After fully mixing, sonication was conducted for 3 min. After evaporated at 60° C. to remove organic solvent, the bencaosome solution was obtained by hydrating with 100 μL opti-MEM. Then the bencaosome was added to A549 cells and co-incubated for 6 hours. The samples were collected and tested. After washing three times with PBS, the samples were fixed with 4% paraformaldehyde. After washing three times with PBS, the samples were stained with Alexa Fluor® 488 phalloidin for 30 min. After washing three times with PBS, the samples were stained with Dapi for 5 min, then washed with PBS and sealed for observation."}, "MRC-5 cells": {"system": "MRC-5 cells", "assay": "RT-qPCR detection of nucleic acid delivered by lipid into MRC-5 cells", "conditions": "Example 2-1; MRC-5; double-stranded 100 nM; 24 hours; single lipid No. 38 with or without 1 μL other lipid"}, "[4]": {"conditions": "10 μg/mL lipid, reverse evaporation method"}}}
{"compound": "CCCCCCCCCCCCCCCCCCC[C@@H](O)[C@@H](N)CO", "note": "[lipid No. 41, Sphinganine (d22:0)]", "values": [{"measurement": "delivery effect of lipid, times that of RNAiMAX (RT-qPCR)", "setting": "A549 cells [1]; boiling method", "result": "about twice"}, {"measurement": "delivery effect of lipid compared with RNAiMAX (RT-qPCR)", "setting": "A549 cells [1]; reverse evaporation method", "result": "significantly higher than that of RNAiMAX"}, {"measurement": "efficiency to deliver green fluorescent protein into A549 cells", "setting": "A549 cells [2]; 10 μg/mL lipid, heating method 90° C. 15 min", "result": 5.5, "unit": "%"}, {"measurement": "efficiency to deliver green fluorescent protein into A549 cells", "setting": "A549 cells [2]; [4]", "result": 23.4, "unit": "%"}, {"measurement": "efficiency to deliver green fluorescent protein into A549 cells", "setting": "A549 cells [2]; 30 μg/mL lipid, heating method 90° C. 15 min", "result": 9.5, "unit": "%"}, {"measurement": "entry of green fluorescent protein into A549 cells (confocal microscope)", "setting": "A549 cells [3]", "result": "could effectively deliver protein into A549 cells"}]}
{"compound": "CCCCCCCCCCCCCCCC(=O)OCC(COP(=O)(O)OCCN)OC(=O)CCCCCCCCCCCCCCC", "note": "(stereo not shown) [lipid 71, PE(16:0/16:0)]", "values": [{"measurement": "efficiency to deliver green fluorescent protein into A549 cells", "setting": "A549 cells [2]; [4]", "result": 7.1, "unit": "%"}, {"measurement": "entry of green fluorescent protein into A549 cells (confocal microscope)", "setting": "A549 cells [3]", "result": "could effectively deliver protein into A549 cells"}]}
{"compound": "CCCCCC/C=C\\CCCCCCCC(=O)O[C@H](COC(=O)CCCCCCCCCCCCCCC)COP(=O)(O)OCCN", "note": "[lipid No. 38, PE(16:0/16:1)]", "values": [{"measurement": "amount of HJT-sRNA-m7 that entered the cells (RT-qPCR)", "setting": "MRC-5 cells", "result": "showing an effect close to the transfection reagent RNAiMAX"}]}
{"compound": "green fluorescent protein", "values": [{"measurement": "efficiency of green fluorescent protein free entry into A549 cells", "setting": "A549 cells [2]; no lipid", "result": 3.6, "unit": "%"}]}
